The values below come from ChEMBL document CHEMBL1156829.

Structures are written as SMILES. Whole data set: some 5,400 compounds, median “IFI” near 2, cut for the highest 2% near 22. The list shows a part of the results.

A short description of the experiment: NOVARTIS: Inhibition Frequency Index (IFI) - the number of HTS assays where a compound showed > 50% inhibition/induction, expressed as a percentage of the number of assays in which the compound was tested. The experiment is classed as functional.
Molecule `CC(=O)N1c2ccccc2NC2=C(C(=O)CCC2)C1c1ccc([N+](=O)[O-])cc1` (stereo unspecified) yielded an IFI of 5%. The same measure for `CCOC(=O)c1c(C)[nH]c(C)c1S(=O)(=O)N1CCCC(C(=O)N2CCN(c3cc(C)ccc3C)CC2)C1` (stereo unspecified): 0%.

As for `CCOc1ccc2[nH]c(=O)c(CN(CCc3ccccc3)C(=O)c3cnccn3)cc2c1`, the IFI was determined as 3.23%. The same measure for `Cc1ccc(N2C(=O)C3C(C2=O)C2(c4ccccc4)C(=O)C3(c3ccccc3)C(c3ccccc3)=C2c2ccccc2)cc1Br` (stereo unspecified): 0%; for `CC(=O)N(C1=C(N2CCOCC2)C(=O)c2ccccc2C1=O)c1ccc(C(C)C)c(C)c1`: 7.69%. `Cc1cccc(-n2c(CNC(=O)c3ccc(S(=O)(=O)N4CCCCC4)cc3)nnc2SCC(=O)Nc2nccs2)c1` came in with an IFI of 1.19%. The same measure for `O=C(Nc1ccc(C(F)(F)F)cc1)c1ccc(NCCCN2CCCCCC2)c([N+](=O)[O-])c1`: 0%. The same measure for `O=C(NNc1ccccc1F)c1c(F)cccc1Cl`: 0.8%; for `COC(=O)C1CCCN1S(=O)(=O)c1ccc2ccccc2c1` (stereo unspecified): 0%; for `CCN(CC)c1ccc(C=NNC(=O)c2ccc(Nc3nc(-c4ccccc4)cs3)cc2)c(O)c1`: 27.3%.

`O=C(c1cc2n(n1)C(C(F)(F)F)CC(c1cccs1)N2)N1CCN(C(c2ccccc2)c2ccccc2)CC1` (stereo unspecified) yielded an IFI of 0%.

Consider `CCCCc1ccc(C(=O)NCCCCNc2ccnc3cc(Cl)ccc23)cc1`, for which the IFI amounted to 2.13%. In turn, `CCCOC(=O)C1=C(C)NC2=C(C(=O)CC(c3ccc(OC)cc3)C2)C1c1ccccc1Cl` (stereo unspecified) gave an IFI of 2.35%. The value for `CC(C)c1ccc2c(c1)c1c3c([n+](C)ccn32)CCC1` was 4.17%. For the molecule `COc1cccc(C(=O)N(CCCC(C)Nc2cc(OC)cc3cccnc23)Cc2ccc(OC)c(OC)c2)c1` (stereo unspecified), the IFI stood at 3.81%. The same measure for `CCOC(=O)c1cnc2ccc(C(C)C)cc2c1O`: 0%; for `CC(c1nc2ccc(Cl)cc2c(=O)n1C)N1CCN(S(=O)(=O)c2cccc3ccccc23)CC1` (stereo unspecified): 0%. The value for `COc1nncc(-c2cnnc(SC)n2)n1` was 4.62%. The value for `COc1ccc(C2CC(=O)C3=C(C2)NC(C)=C(C(=O)OC(C)C)C3c2cccc(Cl)c2)cc1OC` (stereo unspecified) was 6.02%; that for `Cc1ccc(-[n+]2c(-c3ccccc3)cn3c2CCCCC3)cc1` was 6.42%; that for `CC(C)(C)CC(C)(C)c1ccc(O)c(CN2CCN(CCC#N)CC2)c1` was 0%.

The molecule `C=C(C)[C@@H]1CC=C(CN2C[C@H](NC(=O)c3ccc(OC)cc3OC)C[C@H]2C(=O)OC)CC1` came in with an IFI of 1.74%. The same measure for `CC(=O)N(C1=C(N2CCCC2)C(=O)c2ccccc2C1=O)c1ccccc1C`: 0%; for `Cc1cccc(-c2cc(C(=O)NC3CCN(Cc4ccccc4)CC3)cc(-n3cnnn3)c2)c1`: 1.71%.

Molecule `CN1CCN(C(=O)c2cccc(-c3nc(-c4ccncc4)cnc3N)c2)CC1` displayed an IFI of 0%. The same measure for `CCCCCCCCCC[n+]1c(C)n(CC)c2cc(Cl)c(Cl)cc21`: 0%. The value for `CC(C)c1ccc(/C=C/C(=O)NCc2ccco2)cc1` was 0%; that for `O=[N+]([O-])c1ccc(-c2ccc(C=NNc3ccccn3)o2)cc1` was 0%; that for `Oc1ccccc1C=NNc1nnc2c3ccccc3n(Cc3ccccc3)c2n1` was 0%. The value for `c1ccc(-c2nc(Nc3ccncc3)cc(-c3cccnc3)n2)cc1` was 0%; that for `O=c1[nH]c(SCC(O)c2ccc(Cl)c(Cl)c2)nc2sc3ccccc3c12` (stereo unspecified) was 3.73%. With `CCOc1ccc2nc(Sc3nc(Nc4cccc(C)c4)nc(Nc4cccc(C)c4)n3)sc2c1`, the IFI was 1.21%. The value for `CO[C@H]1O[C@@H]2COC(c3ccccc3)O[C@H]2[C@@H](O)[C@@H]1OCc1ccccc1` (stereo partly specified) was 1.59%; that for `CCc1ccc2[nH]c(=O)c(CN(CCN(CC)CC)C(=S)NCCCN(C)C)cc2c1` was 5.36%. `N/C(=N\C(=O)c1nc(Cl)c(N)nc1N)NCc1ccc(Cl)c(Cl)c1`: the IFI was found to be 2.82%. The same measure for `COc1ccc(C2CC(=O)C3=C(C2)NC(C)=C(C(=O)OC(C)C)C3c2ccc(F)cc2)cc1OC` (stereo unspecified): 4.71%. The value for `COC(=O)C1=CN(Cc2ccc(OC)cc2)C=C(C(=O)OC)C1c1cccc([N+](=O)[O-])c1` was 1.16%. The value for `C=CC[n+]1c(C=C2C=CN(C)C=C2)sc2ccccc21` was 15.4%; that for `Brc1ccc(-c2cn3c([n+]2-c2ccccc2)SCC3)cc1` was 0.741%; that for `CC(C)CC[n+]1ccccc1C=Cc1ccc(N(C)C)cc1` was 15.4%. In turn, `CN(C)CCNc1ncc(C(=O)NCc2ccccc2)c(NCCc2ccccc2)n1` displayed an IFI of 1.92%.

`CC(C)(C)CC(C)(C)Nc1c(-c2ccccc2OC(=O)c2ccc(Cl)cc2Cl)nc2ccccn12` registered an IFI of 2.83%.

`CNC(=O)NNC(=O)c1cccnc1` displayed an IFI of 2.75%.

Consider `CN(Cc1ccccc1)c1nc2c(c(=O)[nH]c(=O)n2C)n1CCCSc1ncccn1`, for which the IFI turned out to be 2.7%. In turn, `O=C(NCCc1ccccc1)c1cnc(NCCC2=CCCCC2)nc1NCC1CCCCC1` gave an IFI of 3.85%. The value for `CC(C(=O)NN=C1CCN(C)CC1)N(c1ccccc1)S(C)(=O)=O` (stereo unspecified) was 0%; that for `O=C(Nc1ccc(-n2cnnn2)cc1)C1CCN(Cc2cc3ccccc3o2)CC1` was 0%; that for `CC(=O)Nc1cccc(NC(=O)CSc2ccc3nnc(-c4ccc(F)cc4)n3n2)c1` was 0%. The same measure for `O=C1N(c2ccccc2)C[C@@H]2C[C@@H](c3ccc4nsnc4c3)N3CCC[C@@]123`: 0%; for `O=C(NCc1cccnc1)[C@@H]1C[C@H](NC2CCN(CCc3ccccc3)CC2)CN1Cc1ccc(Cl)cc1`: 2.88%.

In the case of `COc1cccc2cc(C(=O)Nc3cccc(C(F)(F)F)c3)c(=O)oc12`, the IFI amounted to 2.33%. The same measure for `CCN(CC)c1ccc(C=Cc2cccc[n+]2CC)cc1`: 8.33%. The value for `COc1ccc(C(=O)C(C)[n+]2ccccc2-c2ccccn2)cc1` (stereo unspecified) was 0%; that for `COCCn1c(SCC(=O)c2ccc(C)cc2C)nnc1-c1ccco1` was 0%. In the case of `CCCCN(CCCC)[P+](N(CCCC)CCCC)(N(CCCC)CCCC)N(CCCC)CCCC`, the IFI turned out to be 27.3%.

On to `CCOC(=O)c1ccc(NCc2c(C)[nH]c3ccccc3c2=O)cc1`, for which the IFI turned out to be 4.17%. The same measure for `CCOC(=O)C1(Cc2ccc(OC)cc2)CCN(C(=O)c2scc3c2OCCO3)CC1`: 0%; for `CCOc1ccc(C2C(C(=O)OCCc3ccccc3)=C(C)NC3=C2C(=O)CC(C)(C)C3)cc1` (stereo unspecified): 3.57%. The value for `Nc1cccc(C(=O)Nc2ccc(Oc3cccc(Oc4ccc(NC(=O)c5cccc(N)c5)cc4)c3)cc2)c1` was 0%; that for `COc1ccc(NC(=O)C2c3ccccc3C(=O)N(CC(C)C)C2c2cccs2)cc1Cl` (stereo unspecified) was 3.12%. Molecule `CC(C)N(C)Cc1cc(-c2nc3ccccc3s2)ccc1O` showed an IFI of 8.04%. On to `CC(C)N(CC(=O)Nc1cc(C(C)(C)C)nn1-c1ccc(Cl)cc1)C(=O)c1ccc(C(C)(C)C)cc1`, for which the IFI worked out at 1.89%. The value for `COc1ccccc1Nc1nc(NCC2CCCO2)c2ccccc2n1` (stereo unspecified) was 0%; that for `CCC(C)NCC(O)(c1ccc(Cl)cc1)c1ccc(Cl)cc1` (stereo unspecified) was 1.32%. The same measure for `Cn1c(=O)[nH]c(=O)c2c1nc(N1CCCCCC1)n2CC(O)COc1ccc([N+](=O)[O-])cc1` (stereo unspecified): 2.38%. The value for `COc1ccccc1NC(=O)CCCC(=O)OC(C)C(=O)c1ccccc1` (stereo unspecified) was 0%. With `Cn1nc(C(C)(C)C)cc1C(=O)N1CCCN1C(=O)CNC(=O)c1ccco1`, the IFI worked out at 0%. The value for `CC(C)NC(=O)c1ccc2c(c1)N=C(c1ccccc1)N(C1CC1)C2` was 2.47%. The same measure for `OC(CNCC1CCCO1)Cn1c2ccc(Br)cc2c2cc(Br)ccc21` (stereo unspecified): 11.7%; for `COC(=O)c1ccnn(-c2ccccc2)c1=O`: 2.6%; for `c1ccc(CCc2nc3cccnc3n2C2CCN(C3CCN(Cc4ccccc4)CC3)CC2)cc1`: 1.92%. The value for `CC1=C(C(=O)OC(C)C)C(c2ccc(F)cc2)C2=C(CC(c3ccc(Cl)cc3)CC2=O)N1` (stereo unspecified) was 7.06%. For `CN1CCCC1CCNCc1cc(-c2ccnc3cc(Cl)ccc23)ccc1O` (stereo unspecified), the IFI was found to be 5%. The value for `Clc1cccc(Nc2nc(NCc3ccco3)c3ccccc3n2)c1` was 9.68%; that for `Cc1ccc(N(C(=O)c2snc(C(=O)NC3CCCCC3)c2N)C(C(=O)NCCc2ccccc2)c2ccc(O)cc2)c(C)c1` (stereo unspecified) was 5.21%. The same measure for `O=C(Oc1ccc(-c2ccc(OC(=O)c3ccco3)cc2)cc1)c1ccco1`: 0%; for `O=C(Cn1c2ccccc2c(=O)c2cc(Cl)ccc21)Nc1cccc(C(F)(F)F)c1`: 3.45%. The value for `COc1ccc2ccc(OC)c(C3C(C#N)=C(N)OC4=C3C(=O)CC(C)(C)C4)c2c1` (stereo unspecified) was 0%; that for `C=CCc1cc([N+](=O)[O-])cc2c1OC1(C=C2)N(c2ccccc2)c2ccccc2C1(C)C` (stereo unspecified) was 0%; that for `COc1ccc(/C=C/C(=O)NC(=O)c2ccccc2O)cc1OC` was 8.33%. Molecule `O=C(COc1ccc(Cl)cc1)Nc1cccc(-c2nc3ncccc3o2)c1` yielded an IFI of 0%. The same measure for `CCC(=O)NCc1nnc(SCc2cccc(C(F)(F)F)c2)n1-c1cccc(OC)c1`: 0.885%.

In the case of `CCCN(CCC)S(=O)(=O)c1cc(Br)cc2c1N(C(C)=O)CC2`, the IFI was found to be 0%. The same measure for `Cc1cccc(C)c1OCC(=O)Nc1ccccc1O`: 0%; for `c1cncc(-c2ncc(-c3cnccn3)c(-c3cccnc3)n2)c1`: 0%; for `OC(CN1CCN(C2c3ccccc3-c3ccccc32)CC1)Cn1c2ccc(Cl)cc2c2cc(Cl)ccc21` (stereo unspecified): 4.62%. The value for `CCOC(=O)C1=C(C)NC2=C(C(=O)C(C(=O)OC)C(C)C2)C1c1cc(Br)c(OC)c(OC)c1` (stereo unspecified) was 4.71%. The same measure for `O=C(Cc1ccc(F)cc1Cl)N1CCN(c2cccc3c2C(=O)N(Cc2ccccn2)C3=O)CC1`: 1.72%; for `COc1ccccc1Cn1c(SCc2ccc(Cl)cc2)nc2ccc(Br)cc2c1=O`: 0%; for `CCC1CCCCN1CCCNC(=O)c1cn(CC)c(=O)c2cc(OC)c(OC)cc12` (stereo unspecified): 0%. As for `CCN1/C(=C/c2[se]c3ccccc3[n+]2CC)C=Cc2cc(OC)ccc21`, the IFI came out at 19.6%. The value for `Cc1cc(-c2ccc(O)c(CN3CCCCCC3)c2)c2ccccc2n1` was 5.13%; that for `CCOC(=O)c1c(NC(=O)C(C)Sc2nnc(CNC(=O)c3ccco3)n2-c2cccc(Cl)c2)sc2c1CCCC2` (stereo unspecified) was 1.22%. In turn, `OC1(c2ccc3ccccc3c2)c2c(c3ccccc3c3ccccc23)C2=NCCN21` (stereo unspecified) showed an IFI of 3.25%.

`Oc1c(CN2CCN(Cc3ccc4cccnc4c3O)CC2)ccc2cccnc12` came in with an IFI of 12.8%.

With `COc1ccc(-c2nc3cc(Cc4ccc5[nH]c(-c6ccc(OC)cc6)nc5c4)ccc3[nH]2)cc1`, the IFI was 25.7%.
